Laboratory results from PubChem BioAssay AID1745845 (National Center for Advancing Translational Sciences (NCATS), 2022).
Where “and” joins values, the source holds several entries; their conditions need not be identical. Identical values can stand only once. About 2,600 (0.72%) of roughly 360,000 compounds were called active. The shares of active, inactive and inconclusive entries below differ from those in the screen. Calls follow the shape of the dose curve; as a rule, active = well fitted inhibition curve with a large enough effect; inconclusive = small, poorly fitted or top-dose-only effect; inactive = no such curve, though single readings can be large or run the other way. Potencies beside an inconclusive call are fits to weak or partial responses and may not hold up.

Assay: Primary qHTS for Inhibitors of ATXN expression; also: nearly all actives have a fitted effect of over 55% in size
Settings: HEK-293 ATXN2-luciferase reporter, luminescence, 24 h; activity change, negative = inhibition: at 57 µM (top of the series)
Procedure, shortened: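 qHTS (up to 57 uM final) was run with 24 h compound exposure of reporter cells at 37 °C. Each well was multiplexed: SteadyGlo luminescence measured ATXN2-luciferase expression after a fluorogenic Gly-Phe-AFC viability readout (25 uM final).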
% is scaled to controls: 0 for no effect and ±100 for the full control effect; potency is read from the fitted curve at half-maximal effect; tags tell the direction and shape of the fitted curve.

**Q.** For COc1cc(/C=C/C(=O)OCC(=O)Nc2cc(S(=O)(=O)N3CCCC3)ccc2Cl)cc(OC)c1OC, which Potency is on record?
**A.** Its Potency is “inactive”.

**Q.** Which Potency does the source give for C#CCOCCOCCOCCNc1nc(N2CCN(C(=O)CCCCCCCCCCNC(=O)[C@H](CCCCN)n3cc(CCO)nn3)CC2)nc(N2CCN(C(=O)CCCCCCCCCCNC(=O)[C@H](CCCN=C(N)N)n3cc(C[C@@H](C)CC)nn3)CC2)n1 here?
**A.** Its Potency is active: 20 µM.

**Q.** Which Potency does the source give for C[C@H]1CN([C@@H](C)CO)C(=O)c2cccc(NC(=O)Nc3ccc(C(F)(F)F)cc3)c2O[C@H]1CN(C)C here?
**A.** The Potency was inconclusive: 20 µM [inhibitor, partial curve, poor fit].

**Q.** Which Potency does the source give for c1ccc(-c2cc3c(NCC4COc5ccccc5O4)ncnc3s2)cc1 (stereo not given) here?
**A.** Its Potency is inconclusive: 31.6 µM [inhibitor, partial curve].

**Q.** With O=C(CN(c1ccc(Cl)cc1)S(=O)(=O)c1ccc(Cl)c([N+](=O)[O-])c1)NCCc1ccccc1 as the compound, how does the Potency read?
**A.** Its Potency is inconclusive: 4.74 µM [inhibitor, partial curve, poor fit].

**Q.** Which Potency does the source give for COc1cc2ccccc2cc1C(=O)N(CCN(C)C)c1nc2c(OC)ccc(OC)c2s1 here?
**A.** The Potency was inconclusive: 39.8 µM [inhibitor, single point].

**Q.** For CC1(C(=O)NCc2cccc3ccccc23)CCN1C(=O)Cc1ccc(-c2ccccc2)cc1 (stereo not given), which Potency is on record?
**A.** Its Potency is inconclusive: 25.1 µM [inhibitor, single point].

**Q.** Which Potency does the source give for CCOC(=O)c1sc(NC(=O)CSc2ccccn2)c(C#N)c1C here?
**A.** The Potency was inconclusive: 14.1 µM [inhibitor, partial curve, poor fit].

**Q.** Which Potency does the source give for Nc1cc(Nc2ccccc2)c2nonc2c1[N+](=O)[O-] here?
**A.** Its Potency is “inactive”.

**Q.** For COC(=O)c1ccc(Oc2c(F)c(F)nc(N3CCOCC3)c2F)cc1, which Potency is on record?
**A.** The Potency was inconclusive: 15.8 µM [inhibitor, partial curve, poor fit].

**Q.** For CCc1cccc(C)c1NC(=O)CSc1nnc(CCCOc2ccc(Cl)cc2Cl)n1C, which Potency is on record?
**A.** Its Potency is inconclusive: 39.8 µM [inhibitor, single point].

**Q.** For CN(C)S(=O)(=O)c1cc(NC(=O)CSc2ncc(C(F)(F)F)cc2Cl)ccc1Cl, which Potency is on record?
**A.** Its Potency is inconclusive: 29.9 µM [inhibitor, single point].

**Q.** Which Potency does the source give for Cc1cc(C)c(CN2CCC(CO)(CCOc3ccccc3)CC2)cc1C here?
**A.** The Potency was inconclusive: 28.2 µM [inhibitor, partial curve, poor fit].

**Q.** Which Potency does the source give for Oc1ccccc1-c1nc(NCc2cccnc2)c2ccccc2n1 here?
**A.** The Potency was inconclusive: 14.1 µM [inhibitor, partial curve].

**Q.** Which Potency does the source give for Cc1ccc(C(=O)C2CCN(C(=O)c3ccc(C)cc3)CC2)cc1 here?
**A.** The Potency was inconclusive: 22.4 µM [inhibitor, partial curve, poor fit].

**Q.** With Cc1ccc(C(=O)c2oc3ccccc3c2NC(=O)c2cc(-c3ccccc3O)n[nH]2)cc1 as the compound, how does the Potency read?
**A.** Its Potency is “inactive”.

**Q.** With COCCNC(=O)/C(C#N)=C/C=C/c1ccccc1[N+](=O)[O-] as the compound, how does the Potency read?
**A.** The Potency was inconclusive: 16.8 µM [inhibitor, partial curve, poor fit].

**Q.** With CCOc1ccc(CN(C)C(=O)CCl)cc1 as the compound, how does the activity change, negative = inhibition read?
**A.** The activity change, negative = inhibition was inactive: -31% [at 11.3 µM].

**Q.** For CCOC(=O)C(=Cc1ccc(-c2ccsc2C(=O)OC)o1)C(=O)OCC, which Potency is on record?
**A.** The Potency was inconclusive: 22.4 µM [inhibitor, partial curve, poor fit].

**Q.** With COc1ccc(-n2nc3cc(C)c(NC(C)=O)cc3n2)cc1 as the compound, how does the Potency read?
**A.** The Potency was active: 8.91 µM.

**Q.** With COCCN1C(=O)c2ccccc2C(C(=O)NCCN(C)C)C1c1ccc(F)cc1 (stereo not given) as the compound, how does the Potency read?
**A.** Its Potency is “inactive”.

**Q.** With CN(C)c1ccc(C(=O)Nc2nnc(-c3ccc(Cl)cc3)o2)cc1 as the compound, how does the Potency read?
**A.** The Potency was inconclusive: 39.8 µM [inhibitor, single point].

**Q.** For CN(C)CC(=O)Nc1nc(-c2ccccc2)cs1, which Potency is on record?
**A.** The Potency was “inactive”.

**Q.** Which Potency does the source give for CC1(Cc2ccccc2Cl)C(=O)Nc2c(Cl)ccc(Cl)c21 (stereo not given) here?
**A.** Its Potency is inconclusive: 25.1 µM [inhibitor, partial curve, poor fit].

**Q.** With NC(=O)CC(NC(=O)Cc1cccc2ccccc12)c1ccc(NCCOc2ccccc2)c([N+](=O)[O-])c1 (stereo not given) as the compound, how does the Potency read?
**A.** The Potency was inconclusive: 39.8 µM [inhibitor, single point].

**Q.** With COc1ccc(/C=C/C(=O)Nc2ccc3nc(N4CCC(C)CC4)cc(C)c3c2)cc1 as the compound, how does the Potency read?
**A.** Its Potency is “inactive”.

**Q.** For CCCCCCCCCCCCCCCC[n+]1ccccc1, which Potency is on record?
**A.** Its Potency is active: 28.2 µM and inconclusive: 7.94 µM [inhibitor, full curve] and active: 31.6 µM.

**Q.** Which Potency does the source give for COCCNc1nc(NCc2cccc(Cl)c2)c2cnn(C)c2n1 here?
**A.** The Potency was inconclusive: 31.6 µM [inhibitor, partial curve, poor fit].

**Q.** Which Potency does the source give for COc1ccc(-c2nc(C#N)c(N3CCCCCC3)o2)cc1OC here?
**A.** Its Potency is “inactive”.

**Q.** For Cc1ccc(CNC(=O)c2ccc3nc(SCc4ccc(F)cc4)[nH]c3c2)cc1, which Potency is on record?
**A.** Its Potency is inconclusive: 15.8 µM [inhibitor, partial curve, poor fit].

**Q.** With Cc1cc(=O)n2nc(N3CCC(C(=O)NCc4ccco4)CC3)sc2n1 as the compound, how does the Potency read?
**A.** Its Potency is “inactive”.

**Q.** With CC1=C(c2ccc(C(C)C)cc2)S(=O)(=O)N=C1N1CCC(C(=O)NCCc2ccco2)CC1 as the compound, how does the Potency read?
**A.** Its Potency is “inactive”.

**Q.** With CCc1nnc(NC(=O)c2ccc(S(=O)(=O)N3CCCC(C)C3)cc2)s1 (stereo not given) as the compound, how does the Potency read?
**A.** Its Potency is “inactive”.

**Q.** Which Potency does the source give for C[C@@H]1CN([C@H](C)CO)C(=O)c2cc(NS(=O)(=O)c3ccc(F)cc3)ccc2O[C@@H]1CN(C)Cc1ccc(Cl)c(Cl)c1 here?
**A.** Its Potency is inconclusive: 39.8 µM [inhibitor, single point].

**Q.** With CC(C)(C)c1ccc(C(=O)NCC(c2ccc(Cl)cc2)N2CCOCC2)cc1 (stereo not given) as the compound, how does the Potency read?
**A.** The Potency was inconclusive: 39.8 µM [inhibitor, single point].

**Q.** With CCOc1ccc(NS(=O)(=O)c2ccc3c4c(cccc24)C(=O)N3)cc1 as the compound, how does the Potency read?
**A.** Its Potency is “inactive”.

**Q.** With O=C(NC(=S)N1CCN(c2ccc(C(F)(F)F)cc2[N+](=O)[O-])CC1)c1cccs1 as the compound, how does the Potency read?
**A.** Its Potency is inconclusive: 31.6 µM [inhibitor, single point].

**Q.** With CCc1nn2cc(-c3ccccc3)nc2s1 as the compound, how does the Potency read?
**A.** Its Potency is inconclusive: 14.1 µM [inhibitor, single point].

**Q.** Which Potency does the source give for CCn1c2ccccc2c2nnc(SCCCn3c(=O)[nH]c4ccccc43)nc21 here?
**A.** Its Potency is inconclusive: 31.6 µM [inhibitor, single point].

**Q.** Which Potency does the source give for CN(C)CCCN1c2ccc3ccccc3c2Sc2cccc(Cl)c21 here?
**A.** Its Potency is inconclusive: 37.7 µM [inhibitor, single point].
